# Source: PubChem BioAssay AID1347165 (National Center for Advancing Translational Sciences (NCATS), 2019)
# Screen size: about 220,000 compounds; about 5,700 (2.6%) were called active. The inconclusive results got no clear call from the source; some entries with a clear call stand among them for comparison. Calls come from the whole dose curve; as a rule, active = well fitted inhibition curve with a large enough effect; inconclusive = small, poorly fitted or top-dose-only effect; inactive = no such curve, though single readings can be large or run the other way. Potencies of inconclusive entries are doubtful fits and often do not repeat.
# Target: Lysine-specific demethylase 5B (Homo sapiens) (UniProt Q9UGL1)
# UniProt Q9UGL1, sequence (Q9UGL1 whole entry, looked up): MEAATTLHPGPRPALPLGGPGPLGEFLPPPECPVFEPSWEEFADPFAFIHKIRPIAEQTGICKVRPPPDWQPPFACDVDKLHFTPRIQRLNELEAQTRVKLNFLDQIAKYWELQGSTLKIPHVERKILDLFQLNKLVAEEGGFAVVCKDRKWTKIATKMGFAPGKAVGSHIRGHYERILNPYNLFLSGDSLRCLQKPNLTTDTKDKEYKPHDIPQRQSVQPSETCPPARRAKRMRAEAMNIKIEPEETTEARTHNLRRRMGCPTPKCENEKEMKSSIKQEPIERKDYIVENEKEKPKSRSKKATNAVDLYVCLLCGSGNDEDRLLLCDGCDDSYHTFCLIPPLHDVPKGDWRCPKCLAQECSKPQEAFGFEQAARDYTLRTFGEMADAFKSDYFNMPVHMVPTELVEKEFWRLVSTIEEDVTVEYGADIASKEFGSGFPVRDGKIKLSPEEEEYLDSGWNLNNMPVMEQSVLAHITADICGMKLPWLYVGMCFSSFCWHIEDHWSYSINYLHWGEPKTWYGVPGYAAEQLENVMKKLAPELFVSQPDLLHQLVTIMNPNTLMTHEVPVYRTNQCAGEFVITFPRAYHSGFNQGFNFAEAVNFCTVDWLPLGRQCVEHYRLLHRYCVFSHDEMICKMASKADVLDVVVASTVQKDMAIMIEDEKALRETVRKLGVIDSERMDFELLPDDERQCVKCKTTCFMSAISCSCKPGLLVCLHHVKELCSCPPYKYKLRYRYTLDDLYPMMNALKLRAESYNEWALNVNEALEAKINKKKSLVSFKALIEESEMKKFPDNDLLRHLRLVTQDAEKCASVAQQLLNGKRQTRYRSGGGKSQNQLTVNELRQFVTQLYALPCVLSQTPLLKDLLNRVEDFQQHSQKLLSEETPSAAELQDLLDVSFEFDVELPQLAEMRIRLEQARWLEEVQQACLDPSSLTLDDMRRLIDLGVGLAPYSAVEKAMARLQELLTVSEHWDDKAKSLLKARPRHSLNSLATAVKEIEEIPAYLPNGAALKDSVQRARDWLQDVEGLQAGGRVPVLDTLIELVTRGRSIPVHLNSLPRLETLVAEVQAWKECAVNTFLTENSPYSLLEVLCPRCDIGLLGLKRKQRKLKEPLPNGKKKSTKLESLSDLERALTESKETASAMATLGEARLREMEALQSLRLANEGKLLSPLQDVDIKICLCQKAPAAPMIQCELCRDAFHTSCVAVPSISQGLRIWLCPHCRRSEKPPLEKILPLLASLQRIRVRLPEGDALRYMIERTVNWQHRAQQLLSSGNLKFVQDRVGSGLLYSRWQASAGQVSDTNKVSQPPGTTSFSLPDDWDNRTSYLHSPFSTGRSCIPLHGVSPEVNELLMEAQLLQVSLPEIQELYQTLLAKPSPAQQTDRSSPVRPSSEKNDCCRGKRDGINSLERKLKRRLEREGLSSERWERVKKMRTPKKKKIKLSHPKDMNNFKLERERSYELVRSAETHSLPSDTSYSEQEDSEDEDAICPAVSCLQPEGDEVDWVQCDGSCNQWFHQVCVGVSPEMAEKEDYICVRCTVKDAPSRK
# Assay: Primary screen for KDM5B Histone Demethylases FDH-coupled qHTS; note: nearly all actives have a fitted effect of over 70% in size; for activity change, negative = inhibition: 0% is about no effect
# Conditions: FDH-coupled NADH fluorescence (FDH is formaldehyde dehydrogenase); activity change, negative = inhibition: at 57.7 µM (top of the series) unless noted
# Method in brief: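 qHTS format, multiple compound concentrations. Buffer 50 mM HEPES pH 7.5/0.01% Tween-20; 200 nM KDM5BΔAP final; 10 min compound preincubation; substrate-mix levels 12.5 µM peptide, 25 µM α-KG, 0.25 mM NAD⁺; 30 min RT; ΔRFU.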
# Potency is the fitted concentration of half-maximal effect; tags give direction and shape of the fitted curve.
SMILES,Potency,"activity change, negative = inhibition"
CC1=C[C@@H](CNC(=O)c2ccnc(Cl)c2)[C@H](C(C)C)C[C@H]1Cc1nc2ccc(C)cc2[nH]1,"inconclusive: 17.8 µM [inhibitor, single point]",
O=C([C@H]1CCC[C@@H](O)C1)N1CCN(c2ccc3nccn3n2)CC1,active: 28.2 µM,
CCOC(=O)CCCOc1cccn2c(=O)c(-c3cc(C)n(-c4cccc(C)c4)n3)c(C)nc12,active: 28.2 µM,
O=c1c2nc(-c3cccnc3)ccc2ncn1-c1ccc(F)cc1F,,inactive: -16.6% [at 86.2 µM]
Cc1ccc(C)c(-c2cc(C(=O)O)c3ccc(C)c(C)c3n2)c1,"inconclusive: 35.5 µM [inhibitor, single point]",
CCOC(=O)N1CCN(C(=O)[C@H](C)NC(=O)c2cc3c(OC)cc(OC)cc3n2C)CC1,"inconclusive: 35.5 µM [inhibitor, partial curve, poor fit]",
CC1CCC(C(C)C)C(OC(=O)COC(=O)c2c(F)cccc2Cl)C1 (stereo not drawn),,inactive: -3.22%
CN1CCC2(C1)CN(CC1CC1)c1ccc(C(=O)NCc3cccs3)cc12 (stereo not drawn),"inconclusive: 28.2 µM [inhibitor, partial curve, poor fit]",
Cc1ncccc1C(=O)N1CC(Oc2ccc(-c3nc(-c4ccccc4)no3)cc2)C1,,inactive: -17.3%
O=C(O)c1cccc(-c2ccc(/C=N/O)o2)c1,"inconclusive: 28.2 µM [inhibitor, partial curve, poor fit]",
O=C(COc1ccc(F)cc1)NCc1nnc2c(-c3nc(C4CC4)no3)cccn12,"inconclusive: 22.4 µM [inhibitor, partial curve]",
CCn1cnc2c1c(=O)n(CC(=O)Nc1ccc3c(c1)OC(F)(F)O3)c(=O)n2Cc1ccccc1,,inactive: -7.66%
CN1CCCC2(C1)CN(Cc1cccnc1)c1ccc(C(=O)NCc3cccs3)cc12 (stereo not drawn),,inactive: -35.3% [at 86.2 µM]
CNC(=O)c1cccn2nccc12,active: 31.6 µM,
COc1cccc(NC(=O)CSc2nc(=O)[nH]c3c2CCCC3)c1,,inconclusive: -32.1% [inhibitor]
Cc1c(CC(=O)O)c(=O)oc2c(C)c(OCc3ccccc3F)ccc12,"inconclusive: 28.2 µM [inhibitor, partial curve, poor fit]",
CCNC(=S)Nc1ccc(C)cc1Cl,,inactive: 21.8%
CS(=O)(=O)Nc1ccc(C2(C(=O)N3CCN(c4ccccn4)CC3)CCCCC2)cc1,active: 22.4 µM,
COc1ccc2c(c1)c1c(c(=O)n(-c3cc(Cl)ccc3C)c(=O)n1Cc1ccc(F)cc1)n2C,"inconclusive: 14.1 µM [inhibitor, partial curve, poor fit]",
CCCn1c(=N)c(C(=O)NC(C)c2ccccc2)cc2c(=O)n3ccccc3nc21 (stereo not drawn),"inconclusive: 3.55 µM [inhibitor, full curve, poor fit]",
O=C(c1ccc(Cl)cc1)n1nc(-c2ccccc2)nc1NCc1ccco1,"inconclusive: 28.2 µM [inhibitor, partial curve, poor fit]",
Cc1ccc(CN(C)C(=O)c2coc(COc3ccc4c(c3)OCO4)n2)o1,"inconclusive: 12.6 µM [inhibitor, partial curve]",
Cc1ccc2scc(N3CCCC(C)C3)c(=O)c2c1 (stereo not drawn),"inconclusive: 25.1 µM [inhibitor, partial curve, poor fit]",

SMILES,Potency,"activity change, negative = inhibition"
COc1ccc(C2Nc3ccccc3-c3cc(C)nn32)cc1O (stereo not drawn),"inconclusive: 28.2 µM [inhibitor, partial curve, poor fit]",
CC(NC1CCC2(CCNCC2)CC1)c1nc(-c2ccccn2)no1 (stereo not drawn),"inconclusive: 14.1 µM [inhibitor, partial curve]",
CN(C)CCCNC(=O)c1cc(Br)ccc1O,"inconclusive: 22.4 µM [inhibitor, single point]",
Cc1ccc(CNC(=O)C2CCCCC(=O)N2C)cc1 (stereo not drawn),,inactive: 3.78%
Cc1ccc(-n2nc3c(N4CCCC(C(=O)NCc5ccccc5C)C4)nnc(C)c3c2C)cc1 (stereo not drawn),"inconclusive: 5.62 µM [inhibitor, partial curve, poor fit]",
CC1CCc2nc(NC(=O)c3cc(C(C)(C)C)nn3C)sc2C1 (stereo not drawn),"inconclusive: 25.1 µM [inhibitor, single point]",
COc1cccc(CN2CCc3[nH]c(=S)[nH]c(=O)c3C2)c1,"inconclusive: 39.8 µM [inhibitor, single point]",
O=c1oc2ccc(Cl)cc2cc1-c1nc(-c2cccs2)no1,"inconclusive: 28.2 µM [inhibitor, partial curve, poor fit]",
O=C(NCc1ccc2c(c1)OCO2)c1nc(-c2ccc(Cl)cc2)c2cnccn12,active: 28.2 µM,
O=C(CN1C(=O)COc2ccc(C(=O)COc3ccccc3Cl)cc21)NCc1ccco1,"inconclusive: 35.5 µM [inhibitor, single point]",
CCOC(=O)c1cc2c(=O)n3ccccc3nc2n(CCCOC)c1=NC(=O)c1cc2ccccc2o1,"inconclusive: 8.91 µM [inhibitor, partial curve, poor fit]",
C(#Cc1ccccc1)C[N+]1(CC#Cc2ccc(C#CC[N+]3(CC#Cc4ccccc4)CCOCC3)cc2)CCOCC1,"inconclusive: 28.2 µM [inhibitor, single point]",
COc1ccc(NC(=O)Cn2c(=O)n(Cc3ccccc3Cl)c(=O)c3cc(OC)c(OC)cc32)cc1,"inconclusive: 3.16 µM [inhibitor, partial curve, poor fit]",
Cc1ccccc1OCc1nc(C2CN(C(=O)C(C)c3ccccc3)C2)no1 (stereo not drawn),,inactive: 8.72%
COc1ccc(CN2CCN(Cc3ccncc3)CC2)cc1OC,"inconclusive: 8.91 µM [inhibitor, partial curve, poor fit]",
COCCn1c(C)cnc1CCNS(=O)(=O)c1c(C)noc1C,"inconclusive: 15.8 µM [inhibitor, partial curve, poor fit]",
O=c1oc2ccc3ccccc3c2cc1-c1csc(Nc2ccccc2F)n1,"inconclusive: 22.4 µM [inhibitor, single point]",
Cc1ccc(C(=O)CC2(O)C(=O)N(CCc3ccccc3)c3ccc(Br)cc32)cc1 (stereo not drawn),"inconclusive: 8.91 µM [inhibitor, partial curve, poor fit]",
Cc1noc(C)c1-c1cnc(Nc2cccc(C(F)(F)F)c2)c2c1CCO2,active: 35.5 µM,
CCOc1ccccc1CNC(=O)CCc1cn(C)c2ccccc12,"inconclusive: 28.2 µM [inhibitor, partial curve, poor fit]",
CC(C(=O)NCc1ccccc1)n1ccc2cc(S(=O)(=O)N3CCCC3)ccc21 (stereo not drawn),,inconclusive: -35.8% [inhibitor]
CCCCCNC(=O)NCCc1c[nH]c2ccccc12,,inactive: 13.5%
N#Cc1ccccc1-c1ccc(-c2cn(Cc3nnc4ccccn34)nn2)o1,active: 28.2 µM,

SMILES,Potency,"activity change, negative = inhibition"
Cc1ccc(-c2nc(CNC(=O)CC3CNCCO3)[nH]c2-c2ccccn2)cc1 (stereo not drawn),"inconclusive: 31.6 µM [inhibitor, single point]",
O=C(CN1C(=O)CCSc2ccc(S(=O)(=O)N3CCCC3)cc21)Nc1ccccc1Cl,,inactive: 12.3%
COc1ccc(-c2cc(N3CCCC(NC(=O)c4cc(C)ccc4C)C3)n[nH]2)cc1 (stereo not drawn),"inconclusive: 28.2 µM [inhibitor, partial curve]",
CCCOc1ccc(CC2C(=O)Nc3ccc(Br)cc32)cc1 (stereo not drawn),"inconclusive: 17.8 µM [inhibitor, single point]",
CC(C)NC(=O)N1CCN2C(=O)N(C(C)C)C(=O)[C@H]2C1,,inactive: 39.3% [at 115 µM]
Cn1cccc1CN[C@H]1[C@H](O)[C@@H](N2CCC(C(N)=O)CC2)[C@@H]2OC[C@H]1O2,"inconclusive: 17.8 µM [inhibitor, single point]",
Cc1ccc(C2Cc3ccccc3N2)c(C)c1 (stereo not drawn),"inconclusive: 28.2 µM [inhibitor, partial curve, poor fit]",
COc1cc2cc(C(=O)NCC(=O)Nc3ncc(C)s3)n(C)c2c(OC)c1OC,"inconclusive: 39.8 µM [inhibitor, single point]",
Cc1cc(C(=O)NCc2ccnc(N3CCOCC3)c2)on1,,inactive: 6.49%
O=C(Nc1ccc(Cl)cc1)c1ccc2c(c1)N(Cc1ccccc1)CCS2,"inconclusive: 35.5 µM [inhibitor, partial curve, poor fit]",
Cc1ncsc1CN1CCC(Cc2ncc(C)n2CC2CC2)C1 (stereo not drawn),"inconclusive: 28.2 µM [inhibitor, single point]",
O=C(c1nnc(CNc2ccccn2)n1-c1cccnc1)N1CCC[C@@H]1C(c1ccccc1)c1ccccc1,active: 12.6 µM,
Cc1ccc(-c2cc3c(ccn3C)c(C(=O)NCCc3cnc[nH]3)n2)cn1,,inactive: -2540% [at 86.2 µM]
O=C(Nc1cc(I)ccc1C(F)(F)F)c1cc(Cl)ccc1Cl,,inactive: -11.6%
CCS(=O)(=O)N1CC[C@H]2C(=O)NCCCCCN(Cc3cccnc3)[C@@H]2C1,"inconclusive: 20 µM [inhibitor, single point]",
O=C(Nc1ccc(Oc2ccccc2)cc1)c1cccc(CN2CCCC2=O)c1,,inactive: -2.26%
O=C(c1ccco1)N1CC[C@@H]2[C@@H](CCC(=O)N2CCc2ccccn2)C1,,inactive: 12.9%
CNC(=O)CCn1ncc2cc(OCc3ccccc3-c3c(C)noc3C)ccc21,,inactive: -29.8% [at 86.2 µM]
O=C(Nc1ccc(Cl)cc1)c1ccc2c(c1)N(Cc1ccccc1)C(=O)c1ccccc1S2(=O)=O,"inconclusive: 15.8 µM [inhibitor, partial curve, poor fit]",
Cc1noc(C)c1CN1CCCC(c2nccn2Cc2ccccc2)C1 (stereo not drawn),,inactive: -20%
CCCCN(C(=O)CN1CCN(c2ccccc2)CC1)c1c(N)n(CC(C)C)c(=O)[nH]c1=O,,inactive: -9.46%
Cc1cc(-c2ccco2)n[nH]1,"inconclusive: 12.6 µM [inhibitor, partial curve, poor fit]",
